In the supplement of paper PMC3334620:
The full ranking holds about 33,000 sequences; the median of “E-score (-0.5 to 0.5)” is about -0.035, and the highest 2% start at about 0.35. The list shows a part of the results.

target: T1, Pdr3 (UniProt P33200); assay: PBM E-score (8-mer binding enrichment) (E-score (-0.5 to 0.5)); higher = stronger / more preferred TF binding; most listed sequences are background and not binding sites; conditions: protein concentration: 200 nM; construct: GST-full length
T1 sequence: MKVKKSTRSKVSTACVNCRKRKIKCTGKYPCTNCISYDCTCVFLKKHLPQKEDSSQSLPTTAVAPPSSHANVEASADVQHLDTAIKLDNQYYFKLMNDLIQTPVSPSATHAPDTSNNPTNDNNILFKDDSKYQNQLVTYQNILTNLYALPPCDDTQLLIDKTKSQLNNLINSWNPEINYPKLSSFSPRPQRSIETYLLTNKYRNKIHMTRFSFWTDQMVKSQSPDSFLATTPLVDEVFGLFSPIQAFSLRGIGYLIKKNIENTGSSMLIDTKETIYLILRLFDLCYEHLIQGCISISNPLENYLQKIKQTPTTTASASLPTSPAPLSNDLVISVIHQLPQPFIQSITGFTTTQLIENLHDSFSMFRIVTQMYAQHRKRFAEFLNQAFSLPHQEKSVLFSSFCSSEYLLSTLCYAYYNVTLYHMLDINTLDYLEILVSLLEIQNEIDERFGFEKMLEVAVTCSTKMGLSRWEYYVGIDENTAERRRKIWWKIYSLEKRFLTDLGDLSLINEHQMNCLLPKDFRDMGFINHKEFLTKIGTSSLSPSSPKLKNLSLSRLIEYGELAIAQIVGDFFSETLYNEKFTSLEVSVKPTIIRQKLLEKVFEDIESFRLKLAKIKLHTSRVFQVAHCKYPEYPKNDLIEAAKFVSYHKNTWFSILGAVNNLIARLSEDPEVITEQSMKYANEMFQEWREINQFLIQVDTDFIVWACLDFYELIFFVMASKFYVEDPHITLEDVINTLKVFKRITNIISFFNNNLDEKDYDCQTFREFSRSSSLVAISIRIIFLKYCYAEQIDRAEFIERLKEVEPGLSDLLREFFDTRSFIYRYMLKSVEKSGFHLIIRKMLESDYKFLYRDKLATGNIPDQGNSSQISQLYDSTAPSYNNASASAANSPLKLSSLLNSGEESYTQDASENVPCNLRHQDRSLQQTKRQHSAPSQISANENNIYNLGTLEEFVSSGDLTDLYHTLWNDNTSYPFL
Experimental: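 Universal 'all 10-mer' protein binding microarrays (Agilent AMADID 015681) probed with GST-tagged S. cerevisiae TFs (full-length or DBD) made by in vitro transcription/translation (PURExpress), about 100-200 nM. Bound TF was detected with fluorescent anti-GST. Each ungapped 8-mer (which stands for itself and its reverse complement) is scored by the PBM enrichment score (E-score), a modified Wilcoxon-Mann-Whitney statistic from -0.5 to +0.5, computed with the Universal PBM Analysis Suite. Scale: above 0.35 generally sequence-specific binding.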

| Sequence | PBM E-score |
| --- | --- |
| ATAGGGTG | -0.121 |
| GTTGGATA | -0.0683 |
| TCATATCA | -0.0642 |
| CCATCCAC | -0.0699 |
| AACTGATC | 0.0523 |
| CCGCAACG | 0.176 |
| ATTATCAA | -0.00314 |
| ACTAATCA | 0.0845 |
| CAATTTCG | -0.0923 |
| CAGGATCG | 0.0205 |
| AAAGAGAG | -0.0264 |
| CCCGGAAA | 0.449 |
| ACTAGCGC | -0.0608 |
| ACTGGCGA | -0.156 |
| ACGACATC | -0.0554 |
| CACTACCC | -0.169 |
| AATGGAAG | 0.0364 |
| CTGCCGAA | 0.1 |
| ACACCGAG | 0.18 |
| CCTGGAAG | -0.203 |
| ATGGATGA | -0.0953 |
| ACCTAGTC | -0.124 |

| Sequence | PBM E-score |
| --- | --- |
| AGGGCTAT | -0.349 |
| TCACATCA | -0.0311 |
| CCTCATGA | -0.0842 |
| GACCACCC | -0.0682 |
| TACACGAA | 0.19 |
| ATCCGTTG | 0.376 |
| AACGTATG | -0.244 |
| ACCACCCG | 0.277 |
| AGGAGTTA | -0.0172 |
| TACGGGAA | 0.261 |
| CGGGAGAA | 0.201 |
| CAAGAGGG | -0.257 |
| AAATTACG | -0.141 |
| ACGAACTG | -0.0643 |
| AGGGATGC | -0.379 |
| ACTATGAC | -0.127 |
| ATTTGTCG | 0.0947 |
| CCTATCCA | -0.222 |
| CCGGAGCC | 0.403 |
| GCCTGGCC | 0.00694 |
| ATACGATA | -0.131 |
| ACCTTGAA | -0.275 |

| Sequence | PBM E-score |
| --- | --- |
| GACTATGC | -0.139 |
| AAGCCTTG | -0.115 |
| ACGTAAGT | -0.172 |
| AGGGGCTC | -0.195 |
| TACCCTCA | -0.0883 |
| GCCCAGTA | 0.0632 |
| AAGGTACC | -0.0179 |
| GTTACAAA | -0.0148 |
| CCAGCGCA | 0.0268 |
| ACTTGTAC | -0.139 |
| CCTCTTCC | 0.102 |
| GACGAACC | -0.0138 |
| ATGGTAGC | 0.0383 |
| AGGAGGCG | -0.0989 |
| GAGGCACA | -0.0527 |
| TAAGCGTA | -0.311 |
| CGCGGTTC | 0.307 |
| TGACCCCA | -0.0487 |
| GGCTAGCC | -0.193 |
| AGTTAACG | -0.056 |
| ACGGGCTG | 0.0396 |
| TCGGTAGA | -0.027 |

| Sequence | PBM E-score |
| --- | --- |
| CAGTCTAA | -0.139 |
| GTCGTTTA | -0.0669 |
| ACCCCAGT | 0.0467 |
| AGATGATG | -0.0403 |
| CAGGAAGG | -0.317 |
| CTTCCATA | -0.218 |
| CAGGTAGA | -0.165 |
| GGCCGTTA | 0.225 |
| GGGGGGCA | -0.411 |
| ACCGGCAC | 0.192 |
| ACAGTGAG | -0.277 |
| CTTAGACC | -0.233 |
| AATTACCT | -0.219 |
| CTTAGCTC | -0.0322 |
| GGGCATTA | -0.0343 |
| CCTTCCAC | -0.127 |
| GCTCACTA | -0.189 |
| AAAATCTT | -0.207 |
| AGAGGGAG | -0.301 |
| AAAGCAGG | -0.087 |
